Screen size: about 140,000 compounds; about 240 (0.17%) were called active. Inconclusive means that the source gave no clear call. Such entries were picked first, then a sample of the others. Calls follow the shape of the dose curve; as a rule, active = well fitted inhibition curve with a large enough effect; inconclusive = small, poorly fitted or top-dose-only effect; inactive = no such curve, though single readings can be large or run the other way. Potencies of inconclusive entries are doubtful fits and often do not repeat.
experiment: Primary qHTS assay for inhibitors of alpha-synuclein gene (SNCA) expression; conditions: HEK-293 SNCA-luciferase knock-in, luminescence, 24 h; series mostly up to 57.2 µM; also: nearly all actives have a fitted effect of over 45% in size
Potency is read from the fitted curve at half-maximal effect; tags tell the direction and shape of the fitted curve.

Potency, inactive:
Oc1cccc(-c2cc3c(cn2)NCCN(Cc2ccccc2)C3)c1, Fc1ccccc1-c1noc(-c2nc(-c3ccccc3F)no2)n1, Cc1ccccc1-c1cc2c(nc1-c1ccccc1)nc(C(=O)NCCN(C)C)n2C, O=C(c1ccc(-c2ccc(N3CCCCC3)nc2)cc1)N1CCCC1, O=C(c1ccc2c(c1)OCO2)N1CCC(N2Cc3ccccc3C2=O)CC1, O=C1c2cc(N3CCOCC3)nc(-c3ccccc3Oc3ccccc3)c2CN1C1COC1, COc1ccc(C(=O)N2CCCC(c3nnnn3C)C2)cc1 (configuration not stated), COc1ccc(C(=O)Nc2ccc(-c3noc([C@@H]4CCCN4Cc4ccco4)n3)cn2)cc1, COc1ccc(Cn2c3c(c(=O)n2Cc2ccccc2)CCN(C(=O)c2cocn2)C3)cc1, COc1ccc(-c2cc(N3CCC(NC(=O)c4cccc(C#N)c4)CC3)n[nH]2)cc1, Cn1cc(-c2cnc3[nH]cc(CC(=O)Nc4ccc(C(F)(F)F)cc4)c3c2)cn1, CC(C)c1ccc(C(=O)N2CCc3[nH]nc(C(=O)NCCCc4ccccc4)c3C2)cc1, COc1ccccc1C(=O)NC[C@@H]1C=C(C)[C@H](Cc2nc3ccncc3[nH]2)C[C@H]1C(C)C, COc1ccc(NC(=O)O[C@@H]2C=C[C@H](c3c(C)nn(-c4ccccc4C)c3C)C2)cc1, CCC(=O)c1cc2c(cc1NC(=O)c1ccccc1F)OCCO2, C=CCNC(=O)N1CC[C@H]2CC(=O)N(C3CC3)CC[C@H]2C1

Potency, inconclusive:
CCN(CC)C(=O)N1CCCCC1c1noc(COc2ccc(F)cc2)n1 (configuration not stated) 3.98 µM [inhibitor, full curve], CCN(c1ccccc1C)S(=O)(=O)c1nnc(NC(=O)c2ccc(OC)c(OC)c2)s1 39.8 µM [inhibitor, single point], Cc1c(O)cccc1C(=O)N[C@@H](CSc1ccccc1)[C@H](O)CN1C[C@H]2CCCC[C@@H]2C[C@@H]1C(=O)NC(C)(C)C 24.1 µM [inhibitor, partial curve, poor fit], COC(=O)CNC(=O)C1CCCN1c1nccc(Nc2ccccc2F)n1 (configuration not stated) 6.31 µM [inhibitor, partial curve], O=C1NN=C(c2ccncc2)C12CCN([S+](=O)([O-])c1cccc(C(F)(F)F)c1)CC2 39.8 µM [inhibitor, single point], C[S+](=O)([O-])N1CC2(Cc3ccccc31)CN([S+](=O)([O-])c1cccs1)C2 11.2 µM [inhibitor, partial curve], Cc1cc(=O)n(CC(=O)Nc2ccccc2)c(-c2ccc(Cl)cc2)n1 2 µM [inhibitor, partial curve, poor fit], O=C(c1ccc(Cl)cc1)N1CCN(c2nccc(Nc3ccccc3Cl)n2)CC1 39.8 µM [inhibitor, single point], CCOC(=O)c1noc2ncn(CC(=O)Nc3ccc(F)cc3Cl)c(=O)c12 39.8 µM [inhibitor, partial curve, poor fit], Cc1cc2c(cc1S(=O)(=O)Nc1ccc(C(C)C)cc1)OCCN2C 31.6 µM [inhibitor, single point], COc1ccccc1-c1nnc(C2CCN(C(=O)c3ccccc3C)CC2)o1 5.62 µM [inhibitor, single point], Cc1ccc(O)c(NC(=O)CCS(=O)(=O)c2nc(-c3cccs3)cc(C(F)(F)F)n2)c1 20 µM [inhibitor, single point], CCN1CC(C(=O)N(C)Cc2ccc(Oc3ccccc3)cc2)CCC1=O (configuration not stated) 20 µM [inhibitor, single point], Cc1ccc(-c2nnc(C3CN(C(=O)c4cc(C)nn4C)CC34CCOCC4)o2)cc1 (configuration not stated) 4.47 µM [inhibitor, single point], CCc1ccccc1NC(=O)c1cc(-c2ccc(Cl)s2)nc2ccccc12 0.282 µM [inhibitor, full curve], CC[C@H]1CN(C(C)=O)CC[C@H]1CC(=O)NCc1ccc2c(c1)OCO2 56.2 µM [inhibitor, single point], Cc1nonc1C1CCCN1C(=O)c1cn(Cc2ccccc2F)nn1 (configuration not stated) 7.08 µM [inhibitor, partial curve, poor fit], O=[N+]([O-])c1cccc(-c2noc([C@@H]3Cc4nc[nH]c4CN3Cc3cccs3)n2)c1 44.7 µM [inhibitor, single point], CCN(Cc1ccccc1)S(=O)(=O)c1cc(C(=O)Nc2cc(Cl)cc(Cl)c2)ccc1F 39.8 µM [inhibitor, partial curve, poor fit], COc1ccc(-c2[nH]c(-c3cccc(OC)c3)nc2SCC(=O)NC2CCCC2)cc1 39.8 µM [inhibitor, single point], O=S(=O)(NCC(c1cccs1)S(=O)(=O)c1ccccc1)c1ccc(F)c(C(F)(F)F)c1 (configuration not stated) 39.8 µM [inhibitor, single point], Cc1ccccc1C(=O)N1CCCC(Nc2ccc(F)cc2)C1 (configuration not stated) 6.31 µM [inhibitor, single point], CN(CC(=O)NCc1ccccc1)S(=O)(=O)c1ccc2[nH]c3c(c2c1)CCCC3 28.2 µM [inhibitor, single point], C=CCO[C@@H]1CCN2C(=O)c3cc(-c4cc(Cl)ccc4OC)ccc3NC(=O)[C@H]12 35.5 µM [inhibitor, single point], O=C(Cn1ccn2nc(-c3ccc(F)cc3)c(CO)c2c1=O)Nc1cc(F)ccc1Cl 39.8 µM [inhibitor, single point], CC(C)(C)OC(=O)N1CCC(c2c(C(=O)NCCc3ccccc3)cnn2-c2ccc(F)cc2)CC1 10 µM [inhibitor, partial curve, poor fit], O=C(Nc1ccc(OC(F)(F)F)cc1)C1CCN(S(=O)(=O)c2cccs2)CC1 39.8 µM [inhibitor, single point], COc1ccc(-c2cc(C[C@@H]3CC[C@H](O)[C@@H](CNC(=O)C(C)(C)C)O3)no2)cc1 12.6 µM [inhibitor, single point], Cc1noc([C@@H](C)NC(=O)C2CC2)c1C(=O)O 8.91 µM [inhibitor, single point], COc1ccccc1N1CCN(C(=O)C(C)[C@@H]2CCc3c(C)cc(OCCN4CCOCC4)c(C)c3C2)CC1 (some centres not stated) 39.8 µM [inhibitor, single point], COc1ccc(-c2nc(C3CC3)nc3c2CN([S+](=O)([O-])c2ccccc2)CC3)cc1 8.91 µM [inhibitor, full curve, poor fit], CN(C)C[C@@H]1CN(S(C)(=O)=O)C[C@H]1NC(=O)c1ccccc1 35.5 µM [inhibitor, single point], Cc1noc(C)c1[S+](=O)([O-])N1CCN(Cc2ccccc2-c2cccnc2)CC1 39.8 µM [inhibitor, single point], CCOc1ccc(CCNC(=O)c2ccc(-n3c(C)cc4c3CCC(C)C4)cc2)cc1OCC (configuration not stated) 22.4 µM [inhibitor, partial curve, poor fit], O=C(NC1CCN(Cc2ccccc2)CC1)c1cc2n(n1)CC(c1ccc(Cl)cc1)OC2 (configuration not stated) 28.2 µM [inhibitor, single point], CC(=O)N1c2ccc(S(=O)(=O)NCCC(=O)Nc3ccc(Br)c(C)c3)cc2CC1C (configuration not stated) 31.6 µM [inhibitor, single point], O=C(CCn1cncn1)N1CCOc2c(O)cc(-c3cccc(Cl)c3)cc2C1 2.82 µM [inhibitor, full curve, poor fit], CC(C)CCN1CCC2(C1)C(=NC1CCCCC1)NC(=O)N2c1cc(F)cc(F)c1 (configuration not stated) 39.8 µM [inhibitor, single point], Cc1ccc(NC(=O)CN(C)S(=O)(=O)c2ccc3[nH]c4c(c3c2)CCCC4)c(Cl)c1 39.8 µM [inhibitor, single point], Cc1cnn(CCC(=O)N2CCCC(c3nnc(Cn4ccnc4)n3C)C2)c1 (configuration not stated) 39.8 µM [inhibitor, single point], COc1ccc(OC)c(/C=C/C(=O)Nc2ccc(C(=O)OCCC(C)C)cc2)c1 39.8 µM [inhibitor, single point], O=C1NCCCc2[nH]c(-c3ccccc3-n3cccn3)nc21 8.91 µM [inhibitor, single point], COc1ccc(-c2nnc3n2CCN(C(=O)c2ccccc2F)C3)cc1 39.8 µM [inhibitor, single point], CCCCOc1cccc(C(=O)N(Cc2cccs2)c2ccc(OC)cc2)c1 25.1 µM [inhibitor, single point], C=CCN1CCC2(CCC1=O)CN(c1ccc(C#N)cn1)CCN2C (configuration not stated) 39.8 µM [inhibitor, single point], CNC1CCC(N(Cc2cccc(-c3ccncc3)c2)C(=O)c2sc3ccccc3c2Cl)CC1 (configuration not stated) 27.1 µM [inhibitor, partial curve, poor fit]
